No constants are given. Whether binding was seen depends on the method and setting. Binding seen in cells or lysates may run through a third protein. Some entries that bind do so weakly or less than the wild type. Sequences can lack the tags named with a protein.
Legend:
[1] = molecular target: T1, pyruvate kinase Pyk1 (S. cerevisiae (endogenous in yeast)) (UniProt P00549); assay: co-IP; endogenous Pyk1 immunoprecipitated with anti-Pyk1 antibody from yeast cell extract
T1 sequence: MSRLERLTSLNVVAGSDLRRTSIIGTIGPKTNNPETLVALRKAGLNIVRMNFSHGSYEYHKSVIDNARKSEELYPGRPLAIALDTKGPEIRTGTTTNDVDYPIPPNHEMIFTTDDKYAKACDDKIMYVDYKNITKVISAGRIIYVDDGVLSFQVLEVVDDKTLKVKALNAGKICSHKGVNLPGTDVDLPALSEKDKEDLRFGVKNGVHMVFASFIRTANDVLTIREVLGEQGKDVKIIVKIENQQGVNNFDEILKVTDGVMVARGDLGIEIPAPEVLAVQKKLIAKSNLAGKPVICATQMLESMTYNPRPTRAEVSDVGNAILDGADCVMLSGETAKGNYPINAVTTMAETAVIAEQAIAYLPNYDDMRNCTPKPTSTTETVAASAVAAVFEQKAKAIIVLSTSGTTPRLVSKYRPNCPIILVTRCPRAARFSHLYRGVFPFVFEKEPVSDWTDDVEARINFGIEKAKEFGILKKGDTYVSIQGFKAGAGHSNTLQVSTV

The chains behind the UniProt entries cited, without tags or fusion partners.
UniProt P10659: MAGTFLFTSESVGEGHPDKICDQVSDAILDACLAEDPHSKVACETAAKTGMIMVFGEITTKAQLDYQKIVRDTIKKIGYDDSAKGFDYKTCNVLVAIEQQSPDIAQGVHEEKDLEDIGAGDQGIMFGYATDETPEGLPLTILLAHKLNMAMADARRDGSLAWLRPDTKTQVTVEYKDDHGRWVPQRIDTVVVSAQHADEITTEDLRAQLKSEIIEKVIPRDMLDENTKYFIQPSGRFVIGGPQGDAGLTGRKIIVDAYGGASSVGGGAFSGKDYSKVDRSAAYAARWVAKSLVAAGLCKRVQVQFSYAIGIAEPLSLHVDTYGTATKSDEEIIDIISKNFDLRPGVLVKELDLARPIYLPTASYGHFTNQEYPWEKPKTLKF

[2] = molecular target: Sam1 (S. cerevisiae (endogenous in yeast)) (UniProt P10659); assay: co-IP; endogenous Sam1 immunoprecipitated with anti-Sam1 antibody from yeast cell extract
[3] = molecular target: T1, pyruvate kinase Pyk1 (S. cerevisiae (endogenous in yeast)); assay: co-IP; Reb1 and Pyk1 in cells grown in YPD or in glucose starvation medium SD-C (Supplementary Fig. 12b); bait not given

Measured: binding

B1: Reb1 (endogenously expressed, tag not stated) (protein, UniProt P21538 1-810)
chain: MPSGHNDKNANQESVEEAVLKYVGVGLDHQNHDPQLHTKDLENKHSKKQNIVESSSDVDVNNNDDSNRNEDNNDDSENISALNANESSSNVDHANSNEQHNAVMDWYLRQTAHNQQDDEDDENNNNTDNGNDSNNHFSQSDIVVDDDDDKNKKDAGVGVDDDHQSMAMAAVAAAYTLSKNNNNNNSIANDSNSRKRQHDNGNNHENSQKKRKNNNDDDDRQIGNVDPELTTLGDADDNDTNNDVIDRDQLVHKAIIDADSITQHPDFQQYLNTAADTDDNEKLKHIKDHLMRTHGLNHQNKNHNDDTDDLSNSTKQYSELQKDSMLDSSLNKSRNYMEVLPKVISQDTQPHQQKSPSHDNEAGSVDNSEISQLLQSAATKASSLVSLSSSSATPSTSRSNNSKAFDKAEDAALERFINEYEAIERLTRQQVCERIWSSDRPKDNFWNNIYKVLPYRSSSSIYKHMRRKYHIFEQRGKWTAEEEQELAKLCAEKEGQWAEIGKTLGRMPEDCRDRWRNYVKCGTNRASNRWSVEEEELLKKVISDMLEEAQQQQSQLHPNLLEEEQHLLQDDQNDHRNNDEDDDDTASAAAAAAAAIQEQQQLLQQKQQDDDDAIAAAAAAASSSLGDNKDEDKPHDSLGIQLDDNSQNSMVPAPSATSTHSKSLSNTIRRHNNKLRKSLMGNGKLDFKDIINWTIVSERMGGTRSRIQCRYKWNKLVKREAIAKIQTVKDDDMLWIFEKLRDLGITEDSQVDWDELAALKPGMKLNGLELKLCYERMKKKVKGYKQKSINEISKELVDYFSSNISMKTEN
binds: all assays above

From publication PMC9726891
